From the supplement of paper PMC11417369
The other results are listed elsewhere or left out.

These sequences were tested on PfSIP2 AP2 domain 1 (GST-tagged) (assay: gcPBM binding intensity (ln(normalized median fluorescence intensity)); higher = stronger DNA binding).
In short: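 Each value is the highest Masliner-normalised natural-log median intensity across replicate spots of either orientation of a probe. The probes were primer-extended double-stranded 36-bp intergenic genomic sequences on an Agilent 4 × 180k array, alongside negative controls, exposed for 1 h to GST-tagged P. falciparum DNA-binding domains expressed in E. coli. Bound protein was picked up with Alexa488 anti-GST antibody and scanned at 488 nm.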

Sequence | gcPBM binding intensity (ln)
TCCTTATTTATATAATGTACTTTTTTTTTTCATTTT [XGTACX_site4275] | 6.92
TACAAGTATAAATAAGCACACATGTGGATATGTACA [CACACA_site4229] | 6.91
AAAATATAAAATAATGCACACATAAACAAAAAATCA [CACACA_site8382] | 7.33
GATAAAATAGGACCATATTCTTTAAAACGATAAAAT [XGTACX_negctrl_site405] | 6.92
ATATATATATATTTATGTACATATACATAATGTATA [XGTACX_site6387] | 8.91
TAAAGTTAAAAATTATGTACATATATATTGTATATT [XGTACX_site5528] | 7.03
TTATTTTATATATCACGTACATAGTTGTCTTCTTTT [XGTACX_site2906] | 7.02
TAAGAAGTATTTTCCTGTACATATTTTATATGTATG [XGTACX_site4658] | 6.68
TGTTCTATTCTATTATTATTTACAAATTATAAATAA [GTGCAC_negctrl_site232] | 7.24
TATATATATTAGTGTGCACACTTTTTATTTTTATCC [CACACA_site8506] | 8.6
ATATATTTATAATAGGTGCATATGTTTTATTTTTCC [GTGCAC_site9849] | 10.2
AGATATGTTTTTAATTGTACATAAATACACAAATAT [XGTACX_site5981] | 6.97
TGTAATAAATAGTACACACACACATATATATATATT [CACACA_site1388] | 7.23
ATATGTGTGTGTATTTGTACCCAATTTTTATATATA [XGTACX_site4948] | 7.44
AAAAAAAAAAAAAAAAAAAAAATACATATATATATA [CACACA_negctrl_site290] | 9.02
AAAGAATTATATAAGGTGCACGAATGTTTCTTTAAT | 10.9
TATAAATATATTTATACACACATTAGTGTATACATG [CACACA_site7397] | 7.02
AGGTGAAAAATATATAATAATGTAACAAAAAAAAAT [XGTACX_negctrl_site394] | 6.89
TCGTGTTAAATTTTTACACACAAACTTGCAATAATT [CACACA_site3824] | 7.05
AACTATAACTAAAAAAATCACATAAAATATTTTATT [TGCATGCA_negctrl_site363] | 6.72
AACAATAAAAATAATTGTACAAGTTTAAAAAAAATT [XGTACX_site1987] | 6.74
TCTTTAAATTTCTCAACACACAGTTATAAAAAATAA [CACACA_site2856] | 7.04

Sequence | gcPBM binding intensity (ln)
TATATCTTATTTAACACACACAAAGAAAATAGAAAA [CACACA_site3732] | 7.1
ATATTTTTTTTTGTTAGTACTCATATTTGTAGTTTT [XGTACX_site7280] | 7.06
CATTTAAGACAAATTACACACGTATGCCAAATATAT [CACACA_site431] | 7.17
TTTTTAATTTCAATGGTGCAGTAATAATATAATAGT | 10.5
AATATATATAATTATAGTACAGAAAATTAAAAAAGA [XGTACX_site2943] | 7.16
AAAAAGCAGGATTATACACACAAATATTTATATGTT [CACACA_site6634] | 6.65
GCGTAGTTCGGAAGGGTGCTTTTTTGTTAATAAAAA [GTGCAC_site9592] | 9.07
TTATGTTATAAATACACACACAAAAGAAAAAAAAAA [CACACA_site7414] | 7.01
TCCCATAATATTAGTAGTACTATTAATATTTTCAGG [XGTACX_site4925] | 6.99
ATTTCTTTTTTTTCTTGTACACATATTAAATTTATG [XGTACX_site734] | 7.19
TTCTCTATAAATGCTGCACACACATTTAATTATTTA [CACACA_site8828] | 7.22
TCTAAACAAATTAATAAAATAAGTATTCAAAATTAT [CACACA_negctrl_site731] | 6.73
GTAAAATTTCGGATTTGTACACATGGCTATGAAAAA [XGTACX_site939] | 6.96
AATATTTATTTTTTTGCACACATATTTTACATTTTA [CACACA_site3182] | 7.39
ATTCTAATTACATATACACACAAAGGTTCATAACAA [CACACA_site3076] | 7.33
TATATAAATGTATACACACACATATAAATATAAATA [CACACA_site6751] | 7.05
TAACTACTAGAAAAAACACACAAAAAGTAAATATAT [CACACA_site2740] | 6.95
TTCCCATGTAATATTAAACACACACCCATATAACAC [CACACA_site7905] | 7.78
TAAAATATAAGACACACACACATATATTTATATATC [CACACA_site6248] | 7.05
TACCAAATCACCCCTTGTACCCATTTTAAAATTTTC [XGTACX_site396] | 7.22
TGTTTAACATTTATATGTACATATATTCACATATTA [XGTACX_site342] | 6.99
TGATTTTTTTTTTTTTTTTTTTTTTTTTTAGTTTGC [CACACA_negctrl_site1057] | 7.08

Sequence | gcPBM binding intensity (ln)
ATAAACAGATCATATACATGCATATATGTAGAATAA [TGCATGCA_site157] | 6.88
ACATACGAAAATTGGAAGGATAGATAAAAAGAAAAT [CACACA_negctrl_site51] | 7.08
GTACAGATGTAGTATGCATGTAATTATATATAAATT [TGCATGCA_site292] | 7.23
ATATAAAAAAGAGGGAGTACTTGTAACAAAATAATA [XGTACX_site8679] | 7.2
ACGTAGTAGGTATTATGTACATATTTATAAGTATAA [XGTACX_site7336] | 7.05
ACATGTTCATAATTTTGTACATATTTTTATGAACAT [XGTACX_site3976] | 7.12
GAATGTATTCATAAATGTACTTATAATATTATAATA [XGTACX_site3466] | 7.15
ATAACATACATAACAACACACAATATTTATATGTAT [CACACA_site210] | 7.12
ATAAATGAAGATAAATTAAAAAAAAAAAAAAAAAAA [CACACA_negctrl_site992] | 6.94
AATACATAAATATTTTGTACATATTATATAAAATAT [XGTACX_site1627] | 6.98
CGACTTTTAAAATATACACACATATATATATATATA [CACACA_site825] | 9.39
ATGAAAAAAAAAAAAAAAAAAAAAAAAAAAAAAAAA [CACACA_negctrl_site1405] | 6.99
CTTGTACCTAGAAATACACACAATTATATAACTTAT [CACACA_site2838] | 7.2
TATAAGAAAATAATGTGTACTAAATAATAAATGCAT [XGTACX_site1204] | 7.17
CCACATGAGATGATTACACACATATAAATATTTACA [CACACA_site6222] | 7.19
ATATATATTTAATTTACACACAAAAAAAATTGTTGG [CACACA_site961] | 7.15
ACTTTTTAATAATAATAATTATATATATATATATAT [TGCATGCA_negctrl_site459] | 9.29
TCCATTCTATTTTTTACACACGTATGTAAATATTAT [CACACA_site2686] | 7.14
TTAAATACTTTTCGAAGTACATTATATATATAATAT [XGTACX_site7530] | 6.99
CGCAACACTATTTGGGTGCTCTTCAAAAAAAAAAAA [GTGCAC_site9598] | 8.35
ACGAATTAAATGGATTAATATATATATGTATATTTA [CACACA_negctrl_site1512] | 6.81
AGAATATATATAATAGTGCAATGTACAATGAACAAA [GTGCAC_site9577] | 8.01

Sequence | gcPBM binding intensity (ln)
ATTTGCTTTTATTTTACACACTTGCTCCTGTTGTAC [CACACA_site1088] | 7.27
AAAAAAAAATATATTGCACACCTCTCAATAAAAAAA [CACACA_site172] | 7.19
CAGACCTCTTTGTCATGTACATAAAAAAATAAAGAA [XGTACX_site7887] | 7.44
TATAAACAGACGAAAACACACATATGTAAATATATA [CACACA_site4428] | 6.96
TACAAAAAGTTATACACACACGTACCTATAAATAGA [CACACA_site6571] | 6.99
ATAAAAATAATATCATGTACATATGTGTATTGTATT [XGTACX_site1768] | 7.1
AAATGTTGAAAAATATGTACATATTATATATATTAT [XGTACX_site1165] | 7.1
TAAGAAAGACAAAAAAAATGAAAAGAAAAAAAATGA [CACACA_negctrl_site1469] | 6.53
ATTTAGAAAAAATATACACACAGCCTAAACATGCAT [CACACA_site4067] | 6.87
AATATAAGCAAATACACACACACATATATATATATA [CACACA_site3805] | 9.05
TATTTATTTGTTTAAGGTACAGAACAAATTTTTATT [XGTACX_site7414] | 6.99
AAATGTTCTTAAAAATGAATAATATATATATATATA [CACACA_negctrl_site796] | 9.19
ATATTTATTATTATATGTACGTAACATCTTTATAAA [XGTACX_site7016] | 7.19
CATAAATACATACATACACACATATATATATATATA [CACACA_site2106] | 9.58
TTATCCTATACAAGGGAAAAATAAAATAAAATAAAT [TGCATGCA_negctrl_site272] | 6.91
TAAAAAATATTATATACACACAGTATAAAAAAAAAT [CACACA_site4012] | 6.96
ATTGATTATTTTCTAGTGCATAAAATAATTTTTTTT | 9.31
AGTGTCATATAAAATTGTACTTTTTTTTTTTTCTTT [XGTACX_site5651] | 6.76
ATATACATATTATAATGTACATATTTTAATAACCTT [XGTACX_site7617] | 7.06
AATATAAATAAAAACACACACAATGGTACAGATATA [CACACA_site5930] | 7.16
AATTTAAATTAGAATTGTACTAGAAAAGGAATATAT [XGTACX_site6162] | 7.24
AATTATATAATCTTATAACATAATATAATAACATTT [CACACA_negctrl_site187] | 6.76
